Test results as given in the antibiotic and cytotoxicity screens of Wong et al. (2023).
The list shows a part of the results.

Legend:
[1] = system: HSkMC (human skeletal muscle cells); experiment: cytotoxicity call (relative viability < 0.9); details: 10 µM
[2] = system: HepG2; experiment: cytotoxicity call (relative viability < 0.9); details: 10 µM
[3] = system: S. aureus RN4220; experiment: growth inhibition call (relative growth <= 0.2); details: 50 µM

C[C@H]1CN([C@@H](C)CO)C(=O)CCCn2nncc2CO[C@@H]1CN(C)C(=O)Nc1ccccc1C(F)(F)F
inactive: cytotoxicity call [1] | cytotoxicity call [2] | growth inhibition call [3]

Br.CN1CCCC1Cc1c[nH]c2ccc(CCS(=O)(=O)c3ccccc3)cc12 (stereo not drawn)
inactive: cytotoxicity call [1] | cytotoxicity call [2] | growth inhibition call [3]

NNC(=O)CCCCCCC(=O)NO
inactive: cytotoxicity call [1] | cytotoxicity call [2] | growth inhibition call [3]

Cc1noc(C)c1S(=O)(=O)Nc1ccc2c(c1)CC(=O)N([C@@H](C)CO)C[C@@H](C)[C@@H](CN(C)C(=O)Nc1ccccc1)O2
inactive: cytotoxicity call [1] | cytotoxicity call [2] | growth inhibition call [3]

O=C(C[C@@H]1CC[C@@H](NS(=O)(=O)c2ccc(F)cc2)[C@H](CO)O1)NCc1ccc(Cl)c(Cl)c1
inactive: cytotoxicity call [1] | cytotoxicity call [2] | growth inhibition call [3]

COc1ccc(C(=O)c2ccc(C)cc2)c(O)c1
inactive: cytotoxicity call [1] | cytotoxicity call [2] | growth inhibition call [3]

CCCCCCCCCCCCCCCCOc1nc2ccc(C)cc2c(=O)o1
inactive: cytotoxicity call [1] | cytotoxicity call [2] | growth inhibition call [3]

O=C(N/N=C/[C@@H](O)[C@H](O)[C@H](O)CO)c1ccccc1O
inactive: cytotoxicity call [1] | cytotoxicity call [2] | growth inhibition call [3]

Cc1noc(C)c1S(=O)(=O)Nc1ccc2c(c1)CC(=O)N([C@@H](C)CO)C[C@H](C)[C@H](CN(C)Cc1ccncc1)O2
inactive: cytotoxicity call [1] | cytotoxicity call [2] | growth inhibition call [3]

O=C(C[C@@H]1CC[C@H]2[C@@H](COC[C@H](O)CN2S(=O)(=O)c2cccnc2)O1)NCc1ccc(Cl)c(Cl)c1
inactive: cytotoxicity call [1] | cytotoxicity call [2] | growth inhibition call [3]

C[C@@H]1CN([C@@H](C)CO)C(=O)c2cccc(NC(=O)Nc3ccc(F)cc3)c2O[C@@H]1CN(C)S(C)(=O)=O
inactive: cytotoxicity call [1] | cytotoxicity call [2] | growth inhibition call [3]
